Data from patent publication US12427157B2, “Methods for treatment of diseases involving acidic or hypoxic diseased tissues” (Cybrexa 1, Inc., priority 2018, dated 2025).
For at least one compound, name, drawing or mass did not settle the structure. Residues, ends and D or L forms follow the SMILES beside them. *: point of attachment. X1 = Cn1ncnc1[C@H]1c2n[nH]c(=O)c3cc(F)cc(c23)N(CNC(=O)OCCS*)[C@@H]1c1ccc(F)cc1; X3 = CN(Cc1ccc(-c2[nH]c3cc(F)cc4c3c2CCNC4=O)cc1)C(=O)OCc1ccc(S*)cc1

Assays:
PARP [1] = test: Elisa PARylation assay in HeLa cells; format: cell-based
PARP [2] = test: Elisa PARylation assay in (BRCA−/−) DLD-1 cells, 16 h; format: cell-based, Human; details: pH 7.4, (BRCA−/−) DLD-1 cells, read-out: IC50 Elisa PARP Inhibition(nM) pH 7.4 (BRCA−/−) DLD-1 cells, 16 h
PARP [3] = test: Elisa PARylation assay in SW620 cells, 16 h; format: cell-based; details: pH 7.4, SW620 cells, read-out: IC50 Elisa PARP Inhibition(nM) pH 7.4 SW620 cells, 16 h
[4] = pH 8.0, 1 hour at 37° C., read-out: IC50 Elisa PARP Inhibition(nM) pH 8.0

SMILES	IC50 (PARP [1]; [4]) [nM]	IC50 (PARP [1]; pH 5.5, 1 hour at 37° C., read-out: IC50 Elisa PARP Inhibition(nM) pH 5.5) [nM]	IC50 (PARP [1]; pH 6.2, 1 hour at 37° C., read-out: IC50 Elisa PARP Inhibition(nM) pH 6.2) [nM]	IC50 (PARP [1]; pH 7.4, 1 hour at 37° C., read-out: IC50 Elisa PARP Inhibition(nM) pH 7.4) [nM]	IC50 (PARP [2]) [nM]	IC50 (PARP [3]) [nM]
CC(C)C[C@H](NC(=O)[C@H](Cc1ccc(O)cc1)NC(=O)[C@H](C)NC(=O)[C@H](CCCNC(=N)N)NC(=O)[C@H](Cc1c[nH]c2ccccc12)NC(=O)[C@@H]1CCCN1C(=O)[C@H](CC(N)=O)NC(=O)[C@H](CCC(N)=O)NC(=O)[C@H](CC(=O)O)NC(=O)[C@H](CC(=O)O)NC(=O)[C@H](C)N)C(=O)N[C@@H](CC(=O)O)C(=O)N[C@@H](CC(C)C)C(=O)N[C@@H](CC(C)C)C(=O)N[C@@H](Cc1ccccc1)C(=O)N1CCC[C@H]1C(=O)N[C@H](C(=O)N[C@@H](CC(=O)O)C(=O)N[C@H](C(=O)N[C@@H](CC(C)C)C(=O)N[C@@H](CC(C)C)C(=O)N[C@@H](CC(C)C)C(=O)N[C@@H](CC(=O)O)C(=O)N[C@@H](CC(C)C)C(=O)N[C@@H](CC(C)C)C(=O)N[C@@H](Cc1c[nH]c2ccccc12)C(=O)N[C@@H](CC(=O)O)C(=O)N[C@@H](C)C(=O)N[C@@H](CC(=O)O)C(=O)N[C@@H](CCC(=O)O)C(=O)N[C@@H](CSSCCOC(=O)N1CCC[C@]1(C)c1nc2c(C(N)=O)cccc2[nH]1)C(=O)NCC(=O)O)[C@@H](C)O)[C@@H](C)O [Example 11]	9100	–	–	–	–	–
CC[C@H](C)[C@H](NC(=O)[C@@H]1CCCN1C(=O)[C@H](CC(N)=O)NC(=O)[C@H](CCC(N)=O)NC(=O)[C@H](CCC(=O)O)NC(=O)[C@H](C)N)C(=O)N[C@@H](Cc1ccc(O)cc1)C(=O)N[C@@H](Cc1c[nH]c2ccccc12)C(=O)N[C@@H](C)C(=O)N[C@@H](CCCNC(=N)N)C(=O)N[C@@H](Cc1ccc(O)cc1)C(=O)N[C@@H](C)C(=O)N[C@@H](CC(=O)O)C(=O)N[C@@H](Cc1c[nH]c2ccccc12)C(=O)N[C@@H](CC(C)C)C(=O)N[C@@H](Cc1ccccc1)C(=O)N[C@H](C(=O)N[C@H](C(=O)N1CCC[C@H]1C(=O)N[C@@H](CC(C)C)C(=O)N[C@@H](CC(C)C)C(=O)N[C@@H](CC(C)C)C(=O)N[C@@H](CC(C)C)C(=O)N[C@@H](CC(=O)O)C(=O)N[C@@H](CC(C)C)C(=O)N[C@@H](C)C(=O)N[C@@H](CC(C)C)C(=O)N[C@@H](CC(C)C)C(=O)N[C@H](C(=O)N[C@@H](CC(=O)O)C(=O)N[C@@H](C)C(=O)N[C@@H](CC(=O)O)C(=O)N[C@@H](CCC(=O)O)C(=O)N[C@@H](CSSCCOC(=O)NCN1c2cc(F)cc3c(=O)[nH]nc(c23)[C@H](c2ncnn2C)[C@H]1c1ccc(F)cc1)C(=O)NCC(=O)O)C(C)C)[C@@H](C)O)[C@@H](C)O [Example 12] (H-AEQNPIYWARYADWLFTTPLLLLDLALLVDADEC(X1)G-OH; N-terminus and C-terminus assumed)	116	101	159	186	–	–
CC(C)C[C@H](NC(=O)[C@H](Cc1ccc(O)cc1)NC(=O)[C@H](C)NC(=O)[C@H](CCCNC(=N)N)NC(=O)[C@H](Cc1c[nH]c2ccccc12)NC(=O)[C@@H]1CCCN1C(=O)[C@H](CC(N)=O)NC(=O)[C@H](CCC(N)=O)NC(=O)[C@H](CC(=O)O)NC(=O)[C@H](CC(=O)O)NC(=O)[C@H](C)N)C(=O)N[C@@H](CC(=O)O)C(=O)N[C@@H](CC(C)C)C(=O)N[C@@H](CC(C)C)C(=O)N[C@@H](Cc1ccccc1)C(=O)N1CCC[C@H]1C(=O)N[C@H](C(=O)N[C@@H](CC(=O)O)C(=O)N[C@H](C(=O)N[C@@H](CC(C)C)C(=O)N[C@@H](CC(C)C)C(=O)N[C@@H](CC(C)C)C(=O)N[C@@H](CC(=O)O)C(=O)N[C@@H](CC(C)C)C(=O)N[C@@H](CC(C)C)C(=O)N[C@@H](Cc1c[nH]c2ccccc12)C(=O)N[C@@H](CC(=O)O)C(=O)N[C@@H](C)C(=O)N[C@@H](CC(=O)O)C(=O)N[C@@H](CCC(=O)O)C(=O)N[C@@H](CSS[C@H](C)COC(=O)N(C)Cc1ccc(-c2[nH]c3cc(F)cc4c3c2CCNC4=O)cc1)C(=O)NCC(=O)O)[C@@H](C)O)[C@@H](C)O [Example 20]	–	–	–	–	2200	2770
CC[C@H](C)[C@H](NC(=O)[C@@H]1CCCN1C(=O)[C@H](CC(N)=O)NC(=O)[C@H](CCC(N)=O)NC(=O)[C@H](CCC(=O)O)NC(=O)[C@H](C)N)C(=O)N[C@@H](Cc1ccc(O)cc1)C(=O)N[C@@H](Cc1c[nH]c2ccccc12)C(=O)N[C@@H](C)C(=O)N[C@@H](CCCNC(=N)N)C(=O)N[C@@H](Cc1ccc(O)cc1)C(=O)N[C@@H](C)C(=O)N[C@@H](CC(=O)O)C(=O)N[C@@H](Cc1c[nH]c2ccccc12)C(=O)N[C@@H](CC(C)C)C(=O)N[C@@H](Cc1ccccc1)C(=O)N[C@H](C(=O)N[C@H](C(=O)N1CCC[C@H]1C(=O)N[C@@H](CC(C)C)C(=O)N[C@@H](CC(C)C)C(=O)N[C@@H](CC(C)C)C(=O)N[C@@H](CC(C)C)C(=O)N[C@@H](CC(=O)O)C(=O)N[C@@H](CC(C)C)C(=O)N[C@@H](C)C(=O)N[C@@H](CC(C)C)C(=O)N[C@@H](CC(C)C)C(=O)N[C@H](C(=O)N[C@@H](CC(=O)O)C(=O)N[C@@H](C)C(=O)N[C@@H](CC(=O)O)C(=O)N[C@@H](CCC(=O)O)C(=O)N[C@@H](CSSc1ccc(COC(=O)N(C)Cc2ccc(-c3[nH]c4cc(F)cc5c4c3CCNC5=O)cc2)cc1)C(=O)NCC(=O)O)C(C)C)[C@@H](C)O)[C@@H](C)O [Example 28] (H-AEQNPIYWARYADWLFTTPLLLLDLALLVDADEC(X3)G-OH; N-terminus and C-terminus assumed)	–	–	–	–	712	2200
CC(C)C[C@H](NC(=O)[C@H](Cc1ccc(O)cc1)NC(=O)[C@H](C)NC(=O)[C@H](CCCNC(=N)N)NC(=O)[C@H](Cc1c[nH]c2ccccc12)NC(=O)[C@@H]1CCCN1C(=O)[C@H](CC(N)=O)NC(=O)[C@H](CCC(N)=O)NC(=O)[C@H](CC(=O)O)NC(=O)[C@H](CC(=O)O)NC(=O)[C@H](C)N)C(=O)N[C@@H](CC(=O)O)C(=O)N[C@@H](CC(C)C)C(=O)N[C@@H](CC(C)C)C(=O)N[C@@H](Cc1ccccc1)C(=O)N1CCC[C@H]1C(=O)N[C@H](C(=O)N[C@@H](CC(=O)O)C(=O)N[C@H](C(=O)N[C@@H](CC(C)C)C(=O)N[C@@H](CC(C)C)C(=O)N[C@@H](CC(C)C)C(=O)N[C@@H](CC(=O)O)C(=O)N[C@@H](CC(C)C)C(=O)N[C@@H](CC(C)C)C(=O)N[C@@H](Cc1c[nH]c2ccccc12)C(=O)N[C@@H](CSSc1ccc(COC(=O)N(C)Cc2ccc(-c3[nH]c4cc(F)cc5c4c3CCNC5=O)cc2)cc1)C(=O)NCC(=O)O)[C@@H](C)O)[C@@H](C)O [Example 36]	–	–	–	–	271	1170
CC(C)C[C@H](NC(=O)[C@H](Cc1ccc(O)cc1)NC(=O)[C@H](C)NC(=O)[C@H](CCCNC(=N)N)NC(=O)[C@H](Cc1c[nH]c2ccccc12)NC(=O)[C@@H]1CCCN1C(=O)[C@H](CC(N)=O)NC(=O)[C@H](CCC(N)=O)NC(=O)[C@H](CC(=O)O)NC(=O)[C@H](CC(=O)O)NC(=O)[C@H](C)N)C(=O)N[C@@H](CC(=O)O)C(=O)N[C@@H](CC(C)C)C(=O)N[C@@H](CC(C)C)C(=O)N[C@@H](Cc1ccccc1)C(=O)N1CCC[C@H]1C(=O)N[C@H](C(=O)N[C@@H](CC(=O)O)C(=O)N[C@H](C(=O)N[C@@H](CC(C)C)C(=O)N[C@@H](CC(C)C)C(=O)N[C@@H](CC(C)C)C(=O)N[C@@H](CC(=O)O)C(=O)N[C@@H](CC(C)C)C(=O)N[C@@H](CC(C)C)C(=O)N[C@@H](Cc1c[nH]c2ccccc12)C(=O)N[C@@H](CC(=O)O)C(=O)N[C@@H](C)C(=O)N[C@@H](CC(=O)O)C(=O)N[C@@H](CCC(=O)O)C(=O)N[C@@H](CSSc1ccc(COC(=O)N(C)Cc2ccc(-c3[nH]c4cc(F)cc5c4c3CCNC5=O)cc2)cc1)C(=O)NCC(=O)O)[C@@H](C)O)[C@@H](C)O [Example 37]	–	–	–	–	439	1390
